# Paper PMC4336329 (PLoS ONE, 2015)
# Among all 310,000 compounds or so, about 14,000 (4.5%) showed an effect of 50% or more. Effects have a minus sign here. The list shows a part of the results.
# Target: human ether-à-go-go-related gene (hERG) potassium channel (human, UniProt Q12809)
# Assay: primary screen, population patch clamp on CHO cells stably expressing hERG
# 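Note: peak tail current of the secondary pulse compared with the same well before compound.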
# Chain of human ether-à-go-go-related gene (hERG) potassium channel (Q12809 whole entry, looked up): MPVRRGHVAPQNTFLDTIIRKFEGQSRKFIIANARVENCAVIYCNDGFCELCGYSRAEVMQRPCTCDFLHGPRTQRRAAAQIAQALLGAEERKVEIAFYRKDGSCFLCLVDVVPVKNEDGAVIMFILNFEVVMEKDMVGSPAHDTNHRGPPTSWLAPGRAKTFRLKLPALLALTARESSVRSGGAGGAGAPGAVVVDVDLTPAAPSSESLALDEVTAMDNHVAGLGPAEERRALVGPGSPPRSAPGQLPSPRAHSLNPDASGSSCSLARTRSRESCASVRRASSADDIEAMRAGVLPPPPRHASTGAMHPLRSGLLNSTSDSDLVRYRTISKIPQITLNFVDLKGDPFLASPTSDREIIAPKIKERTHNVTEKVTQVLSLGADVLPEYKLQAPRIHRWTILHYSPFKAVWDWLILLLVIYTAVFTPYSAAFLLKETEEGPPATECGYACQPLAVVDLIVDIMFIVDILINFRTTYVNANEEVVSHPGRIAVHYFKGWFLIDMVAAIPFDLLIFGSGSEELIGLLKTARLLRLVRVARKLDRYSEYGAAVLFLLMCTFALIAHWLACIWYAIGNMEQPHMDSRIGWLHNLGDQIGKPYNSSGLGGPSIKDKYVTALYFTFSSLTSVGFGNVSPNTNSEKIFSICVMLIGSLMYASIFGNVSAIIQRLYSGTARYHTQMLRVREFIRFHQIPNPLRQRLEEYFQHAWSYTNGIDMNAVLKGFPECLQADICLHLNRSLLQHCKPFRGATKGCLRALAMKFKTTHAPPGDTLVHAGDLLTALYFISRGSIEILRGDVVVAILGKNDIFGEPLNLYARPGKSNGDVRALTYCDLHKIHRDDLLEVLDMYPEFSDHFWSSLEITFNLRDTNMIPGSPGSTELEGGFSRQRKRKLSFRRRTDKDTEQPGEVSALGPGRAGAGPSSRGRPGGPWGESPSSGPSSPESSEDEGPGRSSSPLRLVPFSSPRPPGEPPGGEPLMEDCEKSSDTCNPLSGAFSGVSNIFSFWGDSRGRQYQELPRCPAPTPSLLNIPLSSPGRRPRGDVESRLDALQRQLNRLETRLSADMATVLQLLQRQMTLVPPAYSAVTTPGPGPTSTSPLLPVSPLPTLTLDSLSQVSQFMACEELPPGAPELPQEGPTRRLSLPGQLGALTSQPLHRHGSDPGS
row,Structure (SMILES),"hERG current change (%, negative = inhibition) at 10uM [%]"
1,CC1=NN(C)C(=O)C1Cc1c(F)cccc1Cl (stereo not shown),4.55
2,CCc1cccc(OCC(=O)Nc2cc(S(=O)(=O)N3CCOCC3)ccc2N2CCCC2)c1,-4.88
3,COc1ccccc1/C=N/NC(=O)c1[nH]c(C)c(C(=O)N/N=C/c2ccccc2OC)c1C,9.14
4,CC(=O)N1CCCc2cc(S(=O)(=O)N3CCN(C4CCCCC4)CC3)ccc21,-4.48
5,COc1ccc(CC(=O)Nc2c(C(N)=O)oc3ccccc23)cc1OC,11.4
6,CC(C)C(NS(=O)(=O)c1cccc2nsnc12)C(=O)NC1CCCCC1C (stereo not shown),8.1
7,COc1ccc(CN2CCCC(N3CCN(c4ccc(OC)cc4)CC3)C2)cc1 (stereo not shown),-45
8,CN(C)CC(=O)c1c(N)n(Cc2ccccc2)c(=O)n(C)c1=O,-7.58
9,COc1ccc(NC(=O)c2cccnn2)cc1,22.6
10,Cc1ccc(-c2csc(NC(=O)c3ccccc3F)c2C(=O)O)cc1,17.6
11,COc1ccc(S(=O)(=O)c2ccc(O)cc2)cc1,-24.5
12,N#Cc1ccc2[nH]c(CO)c(-c3ccccc3)c2c1,-34.2
13,C=CCn1c(O)c(Cc2ccc(OCC)cc2)c(=O)[nH]c1=O,15.4
14,Cc1cc(C)n(CC(O)COc2ccc(Cl)cc2Cl)n1 (stereo not shown),-6.86
15,O=C(c1cccnc1Cl)N(Cc1ccccc1)Cc1ccccc1,-17.7
16,CCOC(=O)c1c(C)n(C)c2ccc(OC(=O)c3ccc(N4C(=O)CCC4=O)cc3)cc12,0.0761
17,c1ccc(C2=NN(c3ccccc3)C(c3ccco3)C2)cc1 (stereo not shown),13.1
18,O=C(Nc1cccnc1)C1CCCN(c2ncnc3c2nc2n3CCCCC2)C1 (stereo not shown),-36
19,CCOc1ccc(OCCC(=O)N(CCC2=CCCCC2)c2c(N)n(Cc3ccccc3)c(=O)[nH]c2=O)cc1,5.08
20,Cc1ccccc1N=C1SCC(=O)N1Cc1ccccc1,-6.74
21,O=C(CSc1nc2ccccc2o1)N1c2ccccc2Sc2ccc(C(F)(F)F)cc21,12.6
22,CCc1nc(SCc2ccc(F)cc2)n[nH]1,8.02

row,Structure (SMILES),"hERG current change (%, negative = inhibition) at 10uM [%]"
1,COc1ccc2[nH]c(=O)c(-c3nnn(-c4ccccc4)n3)cc2c1,-1.01
2,O=C(COc1ccc(Cl)cc1)NNC(=S)NCc1ccccc1,19.4
3,O=C(COc1cccc(-n2cnnn2)c1)Nc1ccc([N+](=O)[O-])cc1,-43.6
4,COc1ccc(N(CC(=O)N2CCC(C(N)=O)CC2)S(=O)(=O)c2ccccc2)cc1,17.5
5,CCc1cc2c(N3CCN(C(=O)c4ccco4)CC3)ncnc2s1,-77.7
6,C1CCN(c2nc(N3CCCCC3)nc(N3CCNCC3)n2)CC1,-7.81
7,CC(=O)N(c1ccc(Cl)cc1)c1nc(C)cc(C)c1C#N,3.5
8,O=C(c1ccccc1S(=O)(=O)NCc1ccccc1)N1CCCCC1,-10.2
9,O=C(C1CC(=O)N(c2ccc(Br)cc2)C1)N1CCCC1 (stereo not shown),-9.86
10,NC(=O)CSc1nnc(NC(=O)c2ccc(S(=O)(=O)N3CCOCC3)cc2)s1,-9.18
11,O=C(NC1CC1)c1cc(-c2ccccn2)nc2ccccc12,-29.5
12,CCN(Cc1nc(-c2ccc(OC)cc2)no1)C(=O)c1ccoc1C,5.13
13,Cc1nn(Cc2c(Cl)cccc2Cl)c(C)c1NC(=O)CCCn1nc([N+](=O)[O-])c(Cl)c1C,-19.6
14,CC1CCC(N(C(=O)c2csnn2)C(C(=O)NC(C)(C)C)c2cccnc2)CC1 (stereo not shown),-20.3
15,Cc1ccc(S(=O)(=O)N2CCN(C(=O)CSC(=S)N3CCCC3)CC2)c(C)c1,-15.1
16,CCCCc1nc2cc(C(=O)N(C)CCc3cn[nH]c3)ccc2o1,5.84
17,CCOc1ccc(C(=O)O/N=C(\N)c2ccc([N+](=O)[O-])cc2)cc1OCC,-6.93
18,CS(=O)(=O)N1CCN(c2nc3ccccc3s2)CC1,0.669
19,CC(C)CCNc1nc(N)c([N+](=O)[O-])c(NC2CCCCC2)n1,16.2
20,Cc1sc2nc(SCC(=O)NCc3ccco3)n(C)c(=O)c2c1C,-16.3
21,CC(C)CN(CC(C)C)C(=O)c1cccc(S(=O)(=O)N2CCc3ccccc32)c1,-24.9
22,COc1ccc(C(NC(C)=O)c2nccc3cc(OC)c(OC)cc23)cc1OC (stereo not shown),15.1

row,Structure (SMILES),"hERG current change (%, negative = inhibition) at 10uM [%]"
1,O=C(Cc1ccc(Cl)cc1)Nc1ccc(Br)cc1,3.47
2,O=C(COc1ccc(NC(=O)c2ccccc2[N+](=O)[O-])cc1)c1ccc(F)cc1,2.93
3,Cc1ccc(C(=O)OCC(=O)NC(=O)c2cccn2C)cc1[N+](=O)[O-],8.96
4,CCCn1c(=NC(C)=O)c(C(=O)OCC)cc2c(=O)n3ccccc3nc21,-9.98
5,Cc1[nH]c2ccccc2c1C(=O)NS(=O)(=O)Nc1ccc(Cl)cc1,21.1
6,O=C(Nc1ccc(C(=O)NCCCN2CCN(c3ccccc3)CC2)cc1)C1=CSCCO1,-38.2
7,CC(C)(C)C(=O)NC(=S)Nc1ccc(Cc2ccncc2)cc1,-45.3
8,C#CCN1C(=O)C2C(C(=O)NC)C3C=CC2(O3)C1C(=O)NCc1ccc(OC)cc1 (stereo not shown),8.12
9,COc1ccc(-c2cc3c(=O)n(CC(=O)NCc4ccc(C)cc4)ncn3n2)cc1,16.8
10,N#Cc1c(Sc2ncc(C(F)(F)F)cc2Cl)nsc1C/C=N\OCc1c(F)cccc1Cl,6.29
11,CC(O)[C@H]1CC[C@H]2[C@@H]3CC[C@H]4C[C@H](O)CC[C@]4(C)[C@H]3[C@H](O)C[C@]12C (stereo partly shown),-0.248
12,CCCn1nnnc1NCc1cccc(Cl)c1,14
13,Cc1ccc(S(=O)(=O)N2CCCCC2C(=O)Nc2nncs2)cc1 (stereo not shown),-1.45
14,COc1oc(-c2ccc(Cl)cc2)nc1C(F)(F)F,11.6
15,Cc1ccc(NC(=O)CN2C(=O)S/C(=C/c3ccncc3)C2=O)cc1,5.97
16,O=C(CCC(=O)OCc1ccc([N+](=O)[O-])cc1Cl)Nc1ccccc1,7.09
17,O=C(c1ccc(Cl)c(S(=O)(=O)N2CCOCC2)c1)N1CCN(c2ccccn2)CC1,-44.2
18,Cc1ccc(N(CC(=O)NC(C)C)C(=O)CCC(=O)Nc2nccs2)c(C)c1,13.8
19,O=S(=O)(c1ccc(Cl)nc1)N1CCc2ccccc21,-2.39
20,CNC(=O)c1cc(C(=O)c2ccc(C(F)(F)F)cc2)c[nH]1,31.8
21,Nc1ncc(-n2cncn2)c(-c2ccc(Cl)cc2)n1,8.84
22,Cc1cccc(CN2CCC(C(=O)Nc3ccc(-n4nc(C)cc4C)cc3)CC2)n1,-25.2

row,Structure (SMILES),"hERG current change (%, negative = inhibition) at 10uM [%]"
1,S=c1[nH]nc(-c2ccccn2)n1/N=C/c1cccc(Cl)c1,3.31
2,O=C(NCCCn1cccn1)C1CCC(=O)N(Cc2ccccc2F)C1 (stereo not shown),18
3,O=C(Nc1ccc(S(=O)(=O)NCc2ccccc2)cc1)c1ccc(Br)o1,-10.9
4,O=C(Cc1ccccc1F)NC1CCSc2ccccc21 (stereo not shown),-13
5,COc1cccc2cc(-c3nnc(-c4ccccc4)o3)c(=O)oc12,11.9
6,COc1ccc(/C=N/NC(=O)c2cccc(Br)c2)cc1Cn1cc(Cl)cn1,8.83
7,CCN=C1SCC(=O)N1c1ccc(OC)cc1,11.5
8,COc1cccc(OCc2nc(-c3ccc(Br)o3)no2)c1,-10.3
9,COc1ccccc1CN1C(=O)CCC1(C)C(=O)NCc1cccnc1 (stereo not shown),-3.78
10,O=C(Nc1cccc(S(=O)(=O)N2CCCCC2)c1)C1CCC1,3.43
11,COc1cc(NC(=O)Cc2cccc3ccccc23)c(C(=O)O)cc1OC,9.74
12,O=C(CN(Cc1ccccc1)S(=O)(=O)c1ccccc1)N/N=C/c1ccc2c(c1)OCO2,8.28
13,O=C(CN(C(=O)c1ccccc1)N1C(=O)CCC1=O)c1cccs1,6.91
14,Cc1c(Cl)cccc1NC(=O)CSc1ccc(-c2cccnc2)nn1,1.36
15,CCOC(=O)c1sc2nc(-c3ccco3)c3c(c2c1N)CC(C)(C)OC3,2.85
16,C[C@H]1O[C@@H](O[C@H]2[C@@H](O)C[C@H](O[C@H]3[C@@H](O)C[C@H](O[C@H]4CC[C@@]5(C)[C@H](CC[C@@H]6[C@@H]5C[C@@H](O)[C@]5(C)[C@@H](C7=CC(=O)OC7)CC[C@]65O)C4)O[C@@H]3C)O[C@@H]2C)C[C@H](O)[C@@H]1O,10.2
17,Cc1cc(C=C2C(=O)c3ccccc3C2=O)c(C)n1-c1cccc(C(=O)O)c1,4.95
18,CC1(C)CC(=O)C(C(=S)Nc2ccc(F)cc2)=C(NCCN2CCOCC2)C1,-7.9
19,Cc1ccc(SCCNC(=O)c2ccccc2C)cc1,1.07
